According to the supplement of paper PMC10369915:
The list shows a part of the results. Rule as the data show it: active = 3.2 or more and inactive = the rest. The signal is at background level for most entries.

Key:
Test in all cases: enrichment score (SH2-bound / input frequency) (ratio); bacterial display of known human phosphotyrosine sites (pTyr-Var adds point mutants) read by sequencing; higher = stronger binding; tyrosines were phosphorylated by kinases first
Conditions in all cases: peptide library: pTyr-Var
SHP2 C-SH2 domain E139D = target: SHP2 C-SH2 domain E139D
[1] = target: SHP2 C-SH2 domain wild-type
SHP2 N-SH2 domain L43F = target: SHP2 N-SH2 domain L43F
SHP2 N-SH2 domain T42A = target: SHP2 N-SH2 domain T42A
SHP2 N-SH2 domain T52S = target: SHP2 N-SH2 domain T52S
[2] = target: SHP2 N-SH2 domain wild-type

Measured: enrichment score
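Also: displayed peptides selected on beads carrying the immobilized SH2 domain, with library peptides lacking any tyrosine serving as negative controls.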

LTERGYSFTTT [ACTB_Y198]
inactive: SHP2 C-SH2 domain E139D 0.984 | [1] 0.957 | SHP2 N-SH2 domain L43F 0.871 | SHP2 N-SH2 domain T42A 0.702 | SHP2 N-SH2 domain T52S 0.862 | [2] 1

IRKDLYSNNVL [ACTC1_Y296_A297S]
inactive: SHP2 C-SH2 domain E139D 1.29 | [1] 0.809 | SHP2 N-SH2 domain L43F 0.974 | SHP2 N-SH2 domain T42A 0.756 | SHP2 N-SH2 domain T52S 0.814 | [2] 0.805

LTDRGYSFVTT [ACTA1_Y200_E197D]
inactive: SHP2 C-SH2 domain E139D 1.1 | [1] 2.7 | SHP2 N-SH2 domain L43F 0.949 | SHP2 N-SH2 domain T42A 1.97 | SHP2 N-SH2 domain T52S 1.29 | [2] 0.794

HNLPIYEGFAL [ACTA1_Y168_V165L_YF]
inactive: SHP2 C-SH2 domain E139D 0.832 | [1] 0.861 | SHP2 N-SH2 domain L43F 0.848 | SHP2 N-SH2 domain T42A 0.705 | SHP2 N-SH2 domain T52S 1.03 | [2] 1.02

KEKLCYVAPDF [ACTA1_Y220_L223P]
active: SHP2 N-SH2 domain L43F 9.43 | SHP2 N-SH2 domain T42A 8.69 | SHP2 N-SH2 domain T52S 9.11 | [2] 4.54
inactive: SHP2 C-SH2 domain E139D 0.922 | [1] 1.01

TLLERYGMTEI [ACSF3_Y355]
inactive: SHP2 C-SH2 domain E139D 0.884 | [1] 0.935 | SHP2 N-SH2 domain L43F 0.976 | SHP2 N-SH2 domain T42A 0.942 | SHP2 N-SH2 domain T52S 1.12 | [2] 0.988

PIYEGYGLPHA [ACTA1_Y171_A172G]
inactive: SHP2 C-SH2 domain E139D 0.641 | [1] 0.785 | SHP2 N-SH2 domain L43F 0.731 | SHP2 N-SH2 domain T42A 0.624 | SHP2 N-SH2 domain T52S 0.619 | [2] 0.842

TLLERYGMIEI [ACSF3_Y355_T358I]
inactive: SHP2 C-SH2 domain E139D 1.42 | [1] 1.14 | SHP2 N-SH2 domain L43F 1.08 | SHP2 N-SH2 domain T42A 1.03 | SHP2 N-SH2 domain T52S 1.02 | [2] 1.2

PICEGYALPHA [ACTC1_Y171_Y168C]
inactive: SHP2 C-SH2 domain E139D 0.949 | [1] 0.741 | SHP2 N-SH2 domain L43F 0.782 | SHP2 N-SH2 domain T42A 0.737 | SHP2 N-SH2 domain T52S 0.784 | [2] 0.796

HNVPICEGYAL [ACTC1_Y168_Y168C]
inactive: SHP2 C-SH2 domain E139D 0.816 | [1] 1.19 | SHP2 N-SH2 domain L43F 0.897 | SHP2 N-SH2 domain T42A 0.755 | SHP2 N-SH2 domain T52S 0.594 | [2] 0.755

QDLTDYLMKIL [ACTA2_Y190_R185Q]
inactive: SHP2 C-SH2 domain E139D 1.62 | [1] 1.16 | SHP2 N-SH2 domain L43F 0.829 | SHP2 N-SH2 domain T42A 1.25 | SHP2 N-SH2 domain T52S 1.41 | [2] 1.12

AVLSLYASDRT [ACTA1_Y145_G148D]
inactive: SHP2 C-SH2 domain E139D 1.19 | [1] 1.03 | SHP2 N-SH2 domain L43F 1.13 | SHP2 N-SH2 domain T42A 1.05 | SHP2 N-SH2 domain T52S 1.08 | [2] 1.28

INASGYRVGPA [ACSM1_Y477_I479V]
inactive: SHP2 C-SH2 domain E139D 0.832 | [1] 0.78 | SHP2 N-SH2 domain L43F 0.688 | SHP2 N-SH2 domain T42A 0.679 | SHP2 N-SH2 domain T52S 0.668 | [2] 0.765

WHHTFYNEPRV [ACTA1_Y93_L96P]
inactive: SHP2 C-SH2 domain E139D 1.91 | [1] 1.35 | SHP2 N-SH2 domain L43F 1.42 | SHP2 N-SH2 domain T42A 1.31 | SHP2 N-SH2 domain T52S 1.54 | [2] 1.59

WDLTDYLMKIL [ACTB_Y188_R183W]
active: SHP2 C-SH2 domain E139D 4.55 | [1] 3.77 | SHP2 N-SH2 domain L43F 3.67 | SHP2 N-SH2 domain T42A 4.15 | SHP2 N-SH2 domain T52S 3.42 | [2] 3.99

HNVPIYEGYGL [ACTA1_Y168_A172G]
inactive: SHP2 C-SH2 domain E139D 0.97 | [1] 0.7 | SHP2 N-SH2 domain L43F 0.862 | SHP2 N-SH2 domain T42A 0.841 | SHP2 N-SH2 domain T52S 0.953 | [2] 1.52

HNLPIYEGYAL [ACTA1_Y168_V165L]
inactive: SHP2 C-SH2 domain E139D 0.885 | [1] 0.945 | SHP2 N-SH2 domain L43F 0.972 | SHP2 N-SH2 domain T42A 0.894 | SHP2 N-SH2 domain T52S 0.881 | [2] 0.91

LTEHGYSFTTT [ACTB_Y198_R196H]
inactive: SHP2 C-SH2 domain E139D 1.16 | [1] 1.09 | SHP2 N-SH2 domain L43F 1.13 | SHP2 N-SH2 domain T42A 0.986 | SHP2 N-SH2 domain T52S 0.787 | [2] 0.945

AVLSLYASGCT [ACTA2_Y145_R149C]
inactive: SHP2 C-SH2 domain E139D 0.798 | [1] 1 | SHP2 N-SH2 domain L43F 0.88 | SHP2 N-SH2 domain T42A 0.842 | SHP2 N-SH2 domain T52S 0.868 | [2] 1.11

LSERGYSFVTT [ACTA2_Y200_T196S]
inactive: SHP2 C-SH2 domain E139D 1.18 | [1] 2.53 | SHP2 N-SH2 domain L43F 0.891 | SHP2 N-SH2 domain T42A 1.81 | SHP2 N-SH2 domain T52S 0.943 | [2] 0.835

AVPSLYASGRT [ACTA1_Y145_L142P]
inactive: SHP2 C-SH2 domain E139D 0.919 | [1] 0.826 | SHP2 N-SH2 domain L43F 0.78 | SHP2 N-SH2 domain T42A 0.637 | SHP2 N-SH2 domain T52S 0.721 | [2] 0.939

FTDGQYWIRGR [ACSF3_Y466_K462T]
inactive: SHP2 C-SH2 domain E139D 0.244 | [1] 0.282 | SHP2 N-SH2 domain L43F 0.37 | SHP2 N-SH2 domain T42A 0.294 | SHP2 N-SH2 domain T52S 0.194 | [2] 0.247

IEDPFYGNDSD [ACP1_Y133_YF]
inactive: SHP2 C-SH2 domain E139D 0.665 | [1] 0.65 | SHP2 N-SH2 domain L43F 0.747 | SHP2 N-SH2 domain T42A 0.681 | SHP2 N-SH2 domain T52S 0.665 | [2] 0.777

IRKDLYANNVM [ACTA1_Y296]
inactive: SHP2 C-SH2 domain E139D 0.951 | [1] 1.01 | SHP2 N-SH2 domain L43F 0.968 | SHP2 N-SH2 domain T42A 0.909 | SHP2 N-SH2 domain T52S 0.806 | [2] 0.954

IRKDLYANNVL [ACTA2_Y296]
inactive: SHP2 C-SH2 domain E139D 0.951 | [1] 1.04 | SHP2 N-SH2 domain L43F 0.936 | SHP2 N-SH2 domain T42A 0.813 | SHP2 N-SH2 domain T52S 0.924 | [2] 1.04

ILTLKYPIEHG [ACTA1_Y71]
inactive: SHP2 C-SH2 domain E139D 1.77 | [1] 1.32 | SHP2 N-SH2 domain L43F 1.67 | SHP2 N-SH2 domain T42A 1.44 | SHP2 N-SH2 domain T52S 1.71 | [2] 1.55

HNVPIYEGYAL [ACTA1_Y168]
inactive: SHP2 C-SH2 domain E139D 0.852 | [1] 0.906 | SHP2 N-SH2 domain L43F 0.878 | SHP2 N-SH2 domain T42A 0.626 | SHP2 N-SH2 domain T52S 0.858 | [2] 0.898

FKDGQYWIRGR [ACSF3_Y466]
inactive: SHP2 C-SH2 domain E139D 0.231 | [1] 0.248 | SHP2 N-SH2 domain L43F 0.288 | SHP2 N-SH2 domain T42A 0.283 | SHP2 N-SH2 domain T52S 0.224 | [2] 0.25

HNVAIYEGFAL [ACTC1_Y168_P166A_YF]
inactive: SHP2 C-SH2 domain E139D 0.853 | [1] 0.74 | SHP2 N-SH2 domain L43F 1.09 | SHP2 N-SH2 domain T42A 0.89 | SHP2 N-SH2 domain T52S 0.785 | [2] 0.789

AVLSLYASGRT [ACTA1_Y145]
inactive: SHP2 C-SH2 domain E139D 1.25 | [1] 1.19 | SHP2 N-SH2 domain L43F 1.15 | SHP2 N-SH2 domain T42A 1.06 | SHP2 N-SH2 domain T52S 1.11 | [2] 1.25

IGKDLYANNVL [ACTA2_Y296_R292G]
inactive: SHP2 C-SH2 domain E139D 0.827 | [1] 0.898 | SHP2 N-SH2 domain L43F 0.794 | SHP2 N-SH2 domain T42A 0.798 | SHP2 N-SH2 domain T52S 0.791 | [2] 1.28

AVLSLYASGRN [ACTA1_Y145_T150N]
inactive: SHP2 C-SH2 domain E139D 1.15 | [1] 1.01 | SHP2 N-SH2 domain L43F 0.998 | SHP2 N-SH2 domain T42A 0.998 | SHP2 N-SH2 domain T52S 1.11 | [2] 1.08

ILTLKYPIKHG [ACTA1_Y71_E74K]
inactive: SHP2 C-SH2 domain E139D 2.34 | [1] 1.94 | SHP2 N-SH2 domain L43F 2.18 | SHP2 N-SH2 domain T42A 2.17 | SHP2 N-SH2 domain T52S 2.3 | [2] 2.22

AVARPYHIQKW [ACSBG1_Y677_A673V]
inactive: SHP2 C-SH2 domain E139D 1.72 | [1] 1.72 | SHP2 N-SH2 domain L43F 1.46 | SHP2 N-SH2 domain T42A 1.58 | SHP2 N-SH2 domain T52S 1.66 | [2] 1.72

AIYEGYALPHA [ACTC1_Y171_P166A]
inactive: SHP2 C-SH2 domain E139D 0.742 | [1] 0.643 | SHP2 N-SH2 domain L43F 0.791 | SHP2 N-SH2 domain T42A 0.643 | SHP2 N-SH2 domain T52S 0.705 | [2] 0.717

AVLSLCASGRT [ACTA2_Y145_Y145C]
inactive: SHP2 C-SH2 domain E139D 0.842 | [1] 0.953 | SHP2 N-SH2 domain L43F 0.779 | SHP2 N-SH2 domain T42A 0.8 | SHP2 N-SH2 domain T52S 0.745 | [2] 1.3

FKDGQYWIRGQ [ACSF3_Y466_R471Q]
inactive: SHP2 C-SH2 domain E139D 0.828 | [1] 0.757 | SHP2 N-SH2 domain L43F 0.686 | SHP2 N-SH2 domain T42A 0.653 | SHP2 N-SH2 domain T52S 0.799 | [2] 0.842
